Patent publication US20250230242A1, “PHARMACEUTICAL COMPOSITION OF ANTI-TIM-3 ANTIBODY AND HYPOMETHYLATING AGENT” (NANJING SHUNXIN PHARMACEUTICALS CO., LTD. OF CHIATAI …, priority 2022, published 2025)

Tests used:
[1] = molecular target: T1, human B7-1 (Homo sapiens, UniProt P33681); experiment: ELISA binding to human B7-1 recombinant protein; conditions: at 100 μg/mL
T1 construct: purchased Sino Biological Inc
T1 sequence (P33681 35-288): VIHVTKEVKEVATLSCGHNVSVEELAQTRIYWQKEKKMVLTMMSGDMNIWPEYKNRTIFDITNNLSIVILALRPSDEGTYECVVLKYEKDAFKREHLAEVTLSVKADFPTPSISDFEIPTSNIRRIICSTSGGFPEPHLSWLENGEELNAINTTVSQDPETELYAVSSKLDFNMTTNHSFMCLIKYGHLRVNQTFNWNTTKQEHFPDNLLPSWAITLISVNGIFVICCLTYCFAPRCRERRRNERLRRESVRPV
Protocol: (§1) After the 96-well plate was washed with PBS (pH 7.4), Goat anti-human Ig kappa chain-HRP conjugate (Millipore) was added for incubation at 37° C. for 1 h, and the HRP substrate o-phenylenediamine dihydrochloride (OPD) was added. After the reaction was stopped with H2SO4, the OD value was measured at a wavelength of 450 nm using a full-function microplate reader Synergy H4 (BioTek), and the binding EC50 was calculated based on the OD value.
(§2) After the 96-well plate was washed with PBST for 3 times, Anti-His HRP (Sino Biological Inc.) was added for incubation at room temperature for 1 h, and the HRP substrate OPD was added. After the reaction was stopped with H2SO4, the OD value was measured at a wavelength of 450 nm using a full-function microplate reader Synergy H4 (BioTek), and the binding EC50 was calculated based on the OD value.

[2] = system: CHO-S-HuTIM-3 cells; experiment: ADCC against CHO-S-HuTIM-3 cells; assay type: cell-based; conditions: 10 or 100 μg/mL, effector cells PBMC, FIG. 3
Protocol: After the reaction was completed, the mixture was centrifuged, and the supernatant was collected and measured for fluorescence values at 490 nm as excitation wavelength and 515 nm as emission wavelength. The cells were lysed directly with 0.1% Triton X-100 and centrifuged, and then the supernatant was collected to determine the total fluorescence value. The lysis rate (%) was calculated based on the fluorescence value.

[3] = molecular target: T2, CHO-S-HuTIM-3 cells highly expressing human TIM-3 (Homo sapiens, UniProt Q8TDQ0); experiment: Binding to cells highly expressing human TIM-3 (cell ELISA)
T2 construct: expressed in transfected cells; host or cells: CHO-S
Protocol: The human TIM-3 gene was transfected into CHO-S cells, and the cells were incubated in an incubator at 37° C. with 5% CO2 using a Dynamis AGT medium (containing 4 mM glutamic acid and 3 μg/mL Puromycin) to give CHO-S-HuTIM-3 cells. […] After the reaction was stopped with H2SO4, the OD value was measured at a wavelength of 450 nm using a full-function microplate reader Synergy H4. The binding EC50 was calculated based on the OD value.

[4] = molecular target: T3, Human TIM-3 (Homo sapiens, UniProt Q8TDQ0); experiment: ELISA binding to human TIM-3 recombinant protein
T3 construct: purchased R&D
Protocol: as §1, §2

[5] = molecular target: T4, mouse TIM-3 (Mus musculus, UniProt Q8VIM0); experiment: ELISA binding to mouse TIM-3 recombinant protein; conditions: at 100 μg/mL
T4 construct: purchased Novoprotein
Protocol: as §1, §2

[6] = system: IFN-γ secretion in MLR (mature DCs + CD4+ T cells from human PBMCs); experiment: IFN-γ secretion in mixed lymphocyte reaction (MLR); assay type: cell-based; conditions: 100, 10 and 1 μg/mL, 5 days, FIG. 2
Protocol: After the incubation was completed, the supernatant was aspirated, and the content of IFN-γ in the supernatant was detected by using an IFN-γ detection kit (Cisbio).

[7] = system: CHO-S-HuTIM-3 cells; experiment: CDC against CHO-S-HuTIM-3 cells; assay type: cell-based; conditions: 10 or 100 μg/mL, 10% human serum, FIG. 4
Protocol: CHO-S-HuTIM-3 cells and Daudi cells (Shanghai Cell Bank of Chinese Academy of Sciences) were inoculated into a 96-well plate. […] Finally, CCK-8 reagent (Dojindo Laboratories) was added and reacted for 4 h. The OD value was measured at a wavelength of 450 nm using a microplate reader, and the lysis rate (%) was calculated.

[8] = Phase I safety, tolerability and pharmacokinetic study in subjects with advanced solid tumors; assay type: in vivo, human; conditions: all dose groups, dose range 1-1800 mg/person
[9] = molecular target: T5, rat TIM-3 (Rattus norvegicus, UniProt P0C0K5); experiment: ELISA binding to rat TIM-3 recombinant protein; conditions: at 100 μg/mL
T5 construct: purchased Chinese Academy of Sciences Shanghai Institute of Materia Medica
T5 sequence (P0C0K5 22-282): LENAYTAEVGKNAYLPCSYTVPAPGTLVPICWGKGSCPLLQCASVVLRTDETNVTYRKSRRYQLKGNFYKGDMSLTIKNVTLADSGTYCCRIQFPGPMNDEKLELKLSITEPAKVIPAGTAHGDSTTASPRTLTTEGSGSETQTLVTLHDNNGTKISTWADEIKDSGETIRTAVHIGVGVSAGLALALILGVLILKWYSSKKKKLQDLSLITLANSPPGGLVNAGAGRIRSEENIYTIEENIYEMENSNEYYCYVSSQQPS
Protocol: as §1, §2

[10] = Multiple intravenous injections safety study in cynomolgus monkeys; assay type: in vivo; conditions: i.v. once a week for 5 consecutive times
[11] = molecular target: T6, human B7-H3 (Homo sapiens, UniProt Q5ZPR3); experiment: ELISA binding to human B7-H3 recombinant protein; conditions: at 100 μg/mL
T6 construct: purchased Sino Biological Inc
T6 sequence (Q5ZPR3 29-534): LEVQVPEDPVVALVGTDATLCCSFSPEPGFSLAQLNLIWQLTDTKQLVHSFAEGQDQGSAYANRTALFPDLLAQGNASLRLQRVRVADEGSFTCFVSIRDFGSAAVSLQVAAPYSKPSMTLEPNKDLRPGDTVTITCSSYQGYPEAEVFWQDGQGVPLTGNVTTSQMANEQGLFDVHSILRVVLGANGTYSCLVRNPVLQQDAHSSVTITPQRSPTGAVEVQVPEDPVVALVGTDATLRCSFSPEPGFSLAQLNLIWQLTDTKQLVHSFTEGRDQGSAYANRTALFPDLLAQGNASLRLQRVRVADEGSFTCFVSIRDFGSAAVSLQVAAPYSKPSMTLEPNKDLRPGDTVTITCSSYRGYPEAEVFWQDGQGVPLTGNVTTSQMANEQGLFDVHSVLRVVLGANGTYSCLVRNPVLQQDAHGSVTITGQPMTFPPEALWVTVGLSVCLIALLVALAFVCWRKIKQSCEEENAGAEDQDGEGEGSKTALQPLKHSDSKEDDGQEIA
Protocol: as §1, §2

[12] = molecular target: T7, human EGFR (Homo sapiens, UniProt P00533); experiment: ELISA binding to human EGFR recombinant protein; conditions: at 100 μg/mL
T7 construct: purchased Sino Biological Inc
Protocol: as §1, §2

[13] = system: lung cancer HCC827 subcutaneous xenograft tumors; experiment: T cell subsets in TILs of HCC827 subcutaneous xenograft tumors in PBMC-NCG mice; assay type: in vivo, human immune reconstituted mice (PBMC-NCG); conditions: Mean ± SD
[14] = system: cynomolgus monkey TIM-3 recombinant protein; experiment: ELISA binding to cynomolgus monkey TIM-3 recombinant protein
Protocol: as §2

[15] = in vivo, iv, 10 mg/kg
[16] = molecular target: T8, human PD-1 (Homo sapiens, UniProt Q15116); experiment: ELISA binding to human PD-1 recombinant protein; conditions: at 100 μg/mL
T8 construct: purchased Sino Biological Inc
Protocol: as §1, §2

[17] = 72 h after single i.v. 10 mg/kg
[18] = 168 h after single i.v. 10 mg/kg
[19] = 168 h after single i.v. 10 mg/kg, 10 mg/kg

T8 sequence (Q15116 25-288): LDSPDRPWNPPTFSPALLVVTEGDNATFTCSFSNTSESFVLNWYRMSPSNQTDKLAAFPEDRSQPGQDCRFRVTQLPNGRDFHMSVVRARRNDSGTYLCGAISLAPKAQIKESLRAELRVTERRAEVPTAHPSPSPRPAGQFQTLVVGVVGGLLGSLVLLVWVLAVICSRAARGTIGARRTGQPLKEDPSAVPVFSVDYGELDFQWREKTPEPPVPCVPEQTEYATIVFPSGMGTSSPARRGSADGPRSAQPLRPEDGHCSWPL
T4 sequence (Q8VIM0 20-281): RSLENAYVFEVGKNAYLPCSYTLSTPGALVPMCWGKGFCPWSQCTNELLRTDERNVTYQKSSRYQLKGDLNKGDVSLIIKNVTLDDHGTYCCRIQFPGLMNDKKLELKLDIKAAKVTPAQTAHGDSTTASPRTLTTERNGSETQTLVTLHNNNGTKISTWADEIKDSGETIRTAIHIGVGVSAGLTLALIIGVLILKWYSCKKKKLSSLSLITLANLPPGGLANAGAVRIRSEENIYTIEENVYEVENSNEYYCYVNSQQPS

B1: h50B5: humanized anti-TIM-3 antibody (IgG4), heavy chain SEQ ID NO: 9, light chain SEQ ID NO: 10; humanized from mouse mAb 50B5 (antibody)
heavy: QVQLVQSGAEVKKPGASVKVSCKASGYSFTGYTINWVRQAPGQGLEWMGLFNPYNGGTTYAQKFQGRVTMTVDKSTSTVYMELSSLRSEDTAVYYCARRYYGYDAMDYWGQGTLVTVSSASTKGPSVFPLAPCSRSTSESTAALGCLVKDYFPEPVTVSWNSGALTSGVHTFPAVLQSSGLYSLSSVVTVPSSSLGTKTYTCNVDHKPSNTKVDKRV[not shown - human IgG4 Fc with S228P (EU numbers)]
light: DIQMTQSPSSLSASVGDRVTITCKSSQSVLYSSNQKNHLAWYQQKPGKAPKLLIYWASTRESGVPSRFSGSGSGTDFTLTISSLQPEDFATYYCHQYLSSYTFGQGTKLEIKRTVAAPSVFIFPPSDEQLKSGTASVVCLLNNFYPREAKVQWKVDNALQSGNSQESVTEQDSKDSTYSLSSTLTLSKADYEKHKVYACEVTHQGLSSPVTKSFNRGEC
modifications: Heavy chain for anti-TIM-3 antibody; Light chain for anti-TIM-3 antibody
notes: humanized from mouse mAb 50B5
[1]
  binding to human B7-1 protein: no obvious binding
[2]
  ADCC against CHO-S-HuTIM-3 cells: did not show significant ADCC
[3]; FIG. 1
  EC50 of binding to CHO-S-HuTIM-3 cells: 1.456 ± 0.338 µg/mL
[3]; FIG. 1, OD450
  maximum binding Emax (OD450), CHO-S-HuTIM-3 cells: 0.21±0.03
[4]; ELISA, OD450
  maximum binding Emax (OD450), human TIM-3 protein: 0.52±0.03
[4]; ELISA, coated antigen
  EC50 of binding to human TIM-3 protein: 0.291 ± 0.0141 µg/mL
[4]; at 100 μg/mL
  binding to human TIM-3 protein: bound
[5]
  binding to mouse TIM-3 protein: no obvious binding
[6]
  effect on IFN-γ secretion in MLR: significantly promoting the secretion of IFN-γ in MLR, showing greater activity than that of TSR022
[7]
  CDC against CHO-S-HuTIM-3 cells: did not show significant CDC
[8]
  dose-limiting toxicity (DLT): no dose-limiting toxicity (DLT) was observed
[9]
  binding to rat TIM-3 protein: no obvious binding
[10]
  no observed adverse effect level (NOAEL): 150 mg/kg
[11]
  binding to human B7-H3 protein: no obvious binding
[12]
  binding to human EGFR protein: no obvious binding
[13]; [17]
  CD3^+/CD45^+ (%) in TILs: 97.7 ± 1.1%
  CD4^+/CD3^+ (%) in TILs: 52.7 ± 5.3%
  CD8^+/CD3^+ (%) in TILs: 29.3 ± 3.9%
  CD8^+/CD4^+ (%) in TILs: 56.8 ± 14.1%
[13]; [18]
  CD3^+/CD45^+ (%) in TILs: 97.5 ± 2.5%
  CD4^+/CD3^+ (%) in TILs: 43.3 ± 8.0%
[13]; [19]
  CD8^+/CD3^+ (%) in TILs: 46.9±6.9%
  CD8^+/CD4^+ (%) in TILs: 112.7±32.1%
[14]; ELISA, OD450
  maximum binding Emax (OD450), cynomolgus monkey TIM-3 protein: 0.34±0.03
[14]; ELISA, antibody coated at 2 μg/mL
  EC50 of binding to cynomolgus monkey TIM-3 protein: 1.639 ± 0.0141 µg/mL
[14]; at 100 μg/mL
  binding to cynomolgus monkey TIM-3 protein: bound
[15]
  AUC0-168 h: 8142.0 µg·h/mL
  Cmax: 150.3 µg/mL
  serum concentration 168 h after administration: 29.4 ± 2.3 µg/mL
[16]
  binding to human PD-1 protein: no obvious binding
